The chains are these.
B1: MCSP-F9 HLP x G4H HLP (bispecific antibody)
chain: EVQLQESGPGLVKPSETLSLTCVVSGGSISSSNWWSWVRQPPGKGLEWLGTIYYNGNTYYNPSLKSRVTISVDTSKNQFSLRLSSVTAADTAVYYCAKSWVSWFASWGQGTLVTVSSGGGGSGGGGSGGGGSELVMTQSPDSLAVSLGERATINCKSSQSVLSSSNNKNYLNWYQQKPGQPPKLLIYWASTRESGVPDRFSGSGSGTDFTLTISSLQAEDVAVYYCQQHYSVPFTFGPGTKVDIKSGGGGSEVQLLESGGGLVQPGGSLKLSCAASGFTFNRYAMNWVRQAPGKGLEWVARIRSKYNNYATYYADSVKGRFTISRDDSKNTAYLQMNNLKTEDTAVYYCVRHGNFGNSYLSYFAYWGQGTLVTVSSGGGGSGGGGSGGGGSELVVTQEPSLTVSPGGTVTLT[gap - about 80 residues]FGGGTKLTVL
notes: plus C-terminal His6 tag
B2: MCSP-G4 HLP x E1L HLP (bispecific antibody)
chain: QVQLVQSGAEVKRPGASMKVSCKASGYTFTNYYIHWVRQAPGQGLEWMGWINPNSGATNYAQKFQGRVTMTRDTSTSTVYMELSSLRSEDTAVYYCAKSWVSWFASWGQGTLVTVSSGGGGSGGGGSGGGGSELVMTQSPDSLAVSLGERATINCKSSQSVLNSSNNRNYLAWYQQKPGQPPKLLIYWASTRESGVPDRFSGSGSGTDFTLTISGLQAEDVAVYYCQQHYSTPFTFGPGTKVDIKSGGGGSEVQLLESGGGLVQPGGSLKLSCAASGFTFNKYAMNWVRQAPGKGLEWVARIRSKYNNYATYYADSVKSRFTISRDDSKNTAYLQMNNLKTEDTAVYYCVRHGNFGNSYTSYYAYWGQGTLVTVSSGGGGSGGGGSGGGGSELVVTQEPSLTVSPGGTVTLT[gap - about 80 residues]FGGGTKLTVL
notes: plus C-terminal His6 tag
B3: MCSP-G4 HLP x G4H HLP (bispecific antibody)
chain: QVQLVQSGAEVKRPGASMKVSCKASGYTFTNYYIHWVRQAPGQGLEWMGWINPNSGATNYAQKFQGRVTMTRDTSTSTVYMELSSLRSEDTAVYYCAKSWVSWFASWGQGTLVTVSSGGGGSGGGGSGGGGSELVMTQSPDSLAVSLGERATINCKSSQSVLNSSNNRNYLAWYQQKPGQPPKLLIYWASTRESGVPDRFSGSGSGTDFTLTISGLQAEDVAVYYCQQHYSTPFTFGPGTKVDIKSGGGGSEVQLLESGGGLVQPGGSLKLSCAASGFTFNRYAMNWVRQAPGKGLEWVARIRSKYNNYATYYADSVKGRFTISRDDSKNTAYLQMNNLKTEDTAVYYCVRHGNFGNSYLSYFAYWGQGTLVTVSSGGGGSGGGGSGGGGSELVVTQEPSLTVSPGGTVTLT[gap - about 80 residues]FGGGTKLTVL
notes: plus C-terminal His6 tag
B4: MCSP-G4 HLP x F6A HLP (bispecific antibody)
chain: QVQLVQSGAEVKRPGASMKVSCKASGYTFTNYYIHWVRQAPGQGLEWMGWINPNSGATNYAQKFQGRVTMTRDTSTSTVYMELSSLRSEDTAVYYCAKSWVSWFASWGQGTLVTVSSGGGGSGGGGSGGGGSELVMTQSPDSLAVSLGERATINCKSSQSVLNSSNNRNYLAWYQQKPGQPPKLLIYWASTRESGVPDRFSGSGSGTDFTLTISGLQAEDVAVYYCQQHYSTPFTFGPGTKVDIKSGGGGSEVQLLESGGGLVQPGGSLKLSCAASGFTFNIYAMNWVRQAPGKGLEWVARIRSKYNNYATYYADSVKSRFTISRDDSKNTAYLQMNNLKTEDTAVYYCVRHGNFGNSYVSFFAYWGQGTLVTVSSGGGGSGGGGSGGGGSELVVTQEPSLTVSPGGTVTLT[gap - about 80 residues]FGGGTKLTVL
notes: plus C-terminal His6 tag

Here are results for four molecules from patent publication EP3461842A1 (Amgen Research (Munich) GmbH, dated 2019).

The test deals with T1, human CD3 (epsilon) on human T cells (HPB-ALL cell line, human PBMC) (human, UniProt P07766).
T1 construct: whole, on cells; also called native CD3
T1 sequence (P07766 23-207): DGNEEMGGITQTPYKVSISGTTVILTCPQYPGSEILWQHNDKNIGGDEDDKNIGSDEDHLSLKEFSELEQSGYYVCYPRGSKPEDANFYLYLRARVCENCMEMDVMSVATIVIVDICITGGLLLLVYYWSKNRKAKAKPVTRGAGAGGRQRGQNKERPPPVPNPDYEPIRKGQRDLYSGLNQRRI
Description: FACS, HPB-ALL. For orientation: In flow cytometry, cells or beads pass a laser one at a time.
B1: the binding result is “binds”.

Regarding B2, the binding result is “binds”.

Consider B3, for which the binding result is on record as “binds”.

Take B4: the binding result is on record as “binds”.
